In ChEMBL document CHEMBL5308541, “MAIP: An Open-Source Tool to Enrich High-Throughput Screening Output and Identify Novel, Druglike Molecules with Antimalarial Activity” (ACS Med Chem Lett, 2023):
About 420 (8.8%) of roughly 4,800 compounds showed an effect of 50% or more. The list shows a part of the results.

Tested on: Plasmodium falciparum
Experiment: Confirmatory screen in NF54 nanoGlo assay, in single point, at 2uM, 72h
Type: functional, Erythrocyte
Conditions: timepoint 72 hour

Structure (SMILES) | % Inhibition [%]
CN1CCN(c2ccc(C(F)(F)F)cc2NCc2cnc[nH]2)CC1 | 62
CN(C)CC12CNCC1CN(c1ccnc3cc(Cl)ccc13)C2 (stereo unspecified) | 98
CN1C2CCC1CC(OC(=O)C1CCC(C(=O)OC3CC4CCC(C3)N4C)(c3ccccc3)c3ccccc31)C2 (stereo unspecified) | 49
CCCOc1cncc(-c2ccc3c(c2)CNCC3)c1 | 3
Oc1ccc(C2=CCN(Cc3cccc4[nH]ccc34)CC2)cc1 | 49
COc1ccc(CCNCc2ccc3[nH]cnc3c2)c(Cl)c1 | 29
CC(C)(C)c1ccc(CNC[C@H](O)c2ccc(F)cc2F)cc1 | 95
Cc1ccc(CNc2ncnc(N)c2Cl)c(N2CCCC2)n1 | 50
CCN(C(C)=O)c1nc(CN2CC=C(c3c[nH]c4cc(F)ccc34)CC2)cs1 | 7
O[C@@H](CNCc1ccc2c(c1)CCO2)c1ccc(F)c(F)c1 | 61
Fc1ccc(N2CC[C@H](CN3CCC(c4c[nH]c5ccccc45)(c4c[nH]c5ccccc45)CC3)C2)cc1 | 97
